# Test results from PubChem BioAssay AID463173 (ICCB-Longwood Screening Facility, Harvard Medical School, 2010).
# Out of some 52,000 compounds screened, about 1,700 (3.3%) were called active. Rule as the data show it: active = survival mostly below about 52% (no sharp cut-off); inactive = mostly above about 56%. The list shows a part of the results.
# Test system: Wild type
# Test: S. aureus survival, RN4220 and DeltatarO strains – OD600, teichoic acid synthesis inhibitors, primary screen (AID 463173)
# Details: S. aureus RN4220 wild type/DeltatarO growth, OD600, 18 h, active compounds read low, screened at 18.75 µg/mL (by protocol)
row,Compound,survival
1,c1ccc(CSc2nc3ncccc3[nH]2)cc1,inactive: 66%
2,O=C(Nc1cccc(C(F)(F)F)c1)C1CCCN1S(=O)(=O)c1cccc2nsnc12 (stereo not drawn),inactive: 76%
3,Cc1ccc(CCNC(=O)c2ccc3c(c2)N(Cc2cccc(Cl)c2)C(=O)c2ccccc2S3(=O)=O)cc1,inactive: 79%
4,CSc1ccc(C2c3c(oc4cc(C)cc(C)c4c3=O)C(=O)N2Cc2ccco2)cc1 (stereo not drawn),inactive: 81%
5,CCCN(CCC)S(=O)(=O)c1ccc(C(=O)Nc2sc3c(c2C(=O)OC)CCN(CC)C3)cc1,inactive: 85%
6,CCc1ccc(-c2csc(Nc3ncccn3)n2)cc1,inactive: 97%
7,Cc1ccc(S(=O)(=O)N2CCC(C(=O)Nc3ccc(C)c(Cl)c3)CC2)cc1,inactive: 122%
8,Cc1cn2c(=O)cc(COC(=O)c3cccc(NC(=O)c4ccccc4C)c3)nc2s1,inactive: 71%
9,COc1ccc(-n2nc(C)c3c(C(F)(F)F)cc(-c4cccnc4)nc32)cc1,inactive: 86%
10,COc1ccc(C(=O)COC(=O)C(Cc2c[nH]c3ccccc23)NC(=O)c2ccc(C(C)(C)C)cc2)cc1 (stereo not drawn),inactive: 93%
11,COc1ccc(CCNC(=O)C(=O)NCC(c2cccs2)S(=O)(=O)c2ccc(C)cc2)cc1 (stereo not drawn),inactive: 97%
12,O=C1c2[nH]nc(-c3ccccc3O)c2C(c2cccc(OCc3ccccc3)c2)N1CCO (stereo not drawn),inactive: 91%
13,CCOC(=O)c1c(C)[nH]c(C)c1S(=O)(=O)N1CCN(c2cccc(C(F)(F)F)c2)CC1,inactive: 121%
14,CCN(CC)C(=O)Cn1c(=O)n(-c2ccc(Cl)cc2)c(=O)c2c3c(sc21)CCC3,inactive: 73%
15,CCOC(=O)c1cc(OC(=O)c2ccccc2C)n(-c2ccccc2)n1,inactive: 68%
16,COCCCNC(=O)C1CCN(c2nc3ccc(C)cc3[nH]2)CC1,inactive: 76%
17,COc1cccc(N2CCN(C(=O)CCS(=O)(=O)c3ccc4c(c3)oc(=O)n4C)CC2)c1,inactive: 69%
18,O=C(COc1cccc(-n2cnnn2)c1)N1CCOCC1,inactive: 105%
19,COc1cc(OC)cc(-c2cc3nc(C)c(CCC(=O)NCc4ccc(Cl)cc4)c(C)n3n2)c1,inactive: 147%
20,Cc1cc2oc(=O)cc(C)c2c2occ(-c3ccc(Cl)cc3)c12,inactive: 81%
21,COc1ccc(C(=O)Nc2ccc(-n3nncc3-c3ccccc3)cc2)cc1OC,inactive: 124%
22,Cc1cccc(N2CCN(C(=O)Cn3ncc4c5ccccc5n(C)c4c3=O)CC2)c1C,inactive: 71%

row,Compound,survival
1,Clc1ccc(C(c2ccccc2)c2c[nH]c3ccccc23)s1 (stereo not drawn),active: 4%
2,Cc1ccc2[nH]c3c(=O)n(CC(=O)N4CCCCC4)ncc3c2c1,inactive: 56%
3,COc1ccc(OC)c(CNC(=O)C2CCN(c3nc4ccccc4nc3C(F)(F)F)CC2)c1,inactive: 124%
4,Cc1ccc(C)n1-c1nnc(N2CCCC(C(=O)NCc3cccc(F)c3)C2)s1 (stereo not drawn),inactive: 81%
5,Cc1ccc(-n2nc(CO)c(C(=O)NCc3cccnc3)n2)cc1,inactive: 88%
6,CCc1ccccc1Nc1nc2ccccc2c2nncn12,inactive: 81%
7,CCc1ccc(S(=O)(=O)c2cn(Cc3ccccc3)c3cc(F)c(F)cc3c2=O)cc1,inactive: 88%
8,COc1ccccc1NC(=O)CSc1ncc2c(n1)-c1cc(Cl)ccc1N(Cc1ccccc1)S2(=O)=O,inactive: 77%
9,Cc1ccc(OCC(=O)Nc2ccc3nc(SCC(=O)N4CCOCC4)sc3c2)cc1,inactive: 96%
10,CCCCNC(=O)CCCn1c(=O)c2ccccc2n(Cc2cccc(Cl)c2)c1=O,inactive: 99%
11,Cn1c(CN2CCCCC2)nc2cc(NC(=O)c3ccccc3Cl)ccc21,inactive: 95%
12,CCCCc1c(C)nc2c(-c3ccc(OC)cc3)c(C)[nH]n2c1=O,active: 12%
13,O=C(NC1CCCC1)c1cc(Nc2cccc(C(F)(F)F)c2)nc2ccccc12,inactive: 73%
14,CCC(=O)N1CCc2cc(Br)cc(S(=O)(=O)CCC(=O)N3CCN(c4ccccc4F)CC3)c21,inactive: 64%
15,COc1ccc2nc(NC(=O)c3nc(SC(C)C)ncc3Cl)sc2c1,inactive: 113%
16,NC(=O)c1nc(Nc2ccccc2)sc1NC(=O)c1ccccc1Br,inactive: 80%
17,O=C(C1CCN(S(=O)(=O)Cc2ccccc2)CC1)N1CCN(c2ccccc2)CC1,inactive: 83%
18,CCOC(=O)c1cccc(NS(=O)(=O)c2ccc(-c3cnc(C4CC4)o3)cc2)c1,inactive: 73%
19,CCOC(=O)c1cccc(NC(=O)c2cc3c(-c4cccc(OC)c4)nn(C)c3s2)c1,inactive: 65%
20,COCCCNC(=O)CSc1nc2c(sc3ccccc32)c(=O)n1CCc1ccccc1,inactive: 64%
21,COc1cc(NC(=O)CSc2nc3ccccc3nc2Cc2ccc(Cl)cc2)cc(OC)c1,inactive: 127%
22,Cc1nc2c(c(C)c1CCC(=O)NCc1ccccc1)c(=O)n(C)c(=O)n2C,inactive: 76%

row,Compound,survival
1,Cc1cccc(NC(=O)C2CCC(CNS(=O)(=O)c3csc(C(N)=O)c3)CC2)c1C (stereo not drawn),inactive: 71%
2,Cc1ccc(S(=O)(=O)c2nc(S(C)(=O)=O)sc2N(C)Cc2ccccc2)cc1,inactive: 93%
3,N#Cc1c(N)n(-c2cccc(Cl)c2)c2nc3ccccc3nc12,inactive: 109%
4,COc1cccc(Nc2cc(C)nc3nc(-c4ccc(Cl)cc4)nn23)c1,inactive: 103%
5,Cc1nn2c(=O)cc(COc3ccc(/C=C(\C#N)C(=O)Nc4ccc(F)cc4)cc3)nc2s1,inactive: 93%
6,O=C(COc1ccccc1Cl)Nc1nnc(S(=O)(=O)N2CCCCCC2)s1,inactive: 83%
7,O=C(NCCCc1nc2ccccc2n1Cc1c(F)cccc1Cl)C1CCCCC1,inactive: 109%
8,CCOC(=O)COc1ccccc1C1C(C(=O)OC)=C(C)NC2=C1C(=O)c1ccccc12 (stereo not drawn),inactive: 70%
9,Cc1nn(C)c2c1c(-c1ccccc1)cc(=O)n2CC(=O)Nc1ccccc1C(F)(F)F,inactive: 71%
10,C=C(C)Cn1cnc2ccccc21,inactive: 107%
11,COc1ccc(NCc2cc3cc4c(cc3n(CC(=O)Nc3cc(C)cc(C)c3)c2=O)OCO4)cc1,inactive: 60%
12,CCOc1ccc(-n2c(=O)c3c(C)c(C)sc3n(CC(=O)N(CC)Cc3ccccc3)c2=O)cc1,inactive: 85%
13,Cc1ccc(Cl)cc1NC(=O)Cc1ccc(-n2c(C)nc3cccnc32)cc1,inactive: 135%
14,Cc1cn2c(=O)cc(COc3ccc(Cl)cc3)nc2s1,inactive: 63%
15,COc1cc(NC(=O)Nc2cccc(-c3noc(C)n3)c2)cc(OC)c1OC,inactive: 121%
16,COc1ccc2c(c1)CC(C(=O)Nc1cc(Cl)ccc1C)CO2 (stereo not drawn),inactive: 73%
17,CCc1ccc(CNC(=O)C2Cc3cc(S(=O)(=O)N4CCCCCC4)ccc3N2C(C)=O)cc1 (stereo not drawn),inactive: 72%
18,CCOc1ccc(CNc2nc3nc(C)c(Cc4ccccc4)c(=O)n3[nH]2)cc1,inactive: 94%
19,O=C(O)C(c1ccccc1)N1CCOCC1 (stereo not drawn),inactive: 107%
20,COc1cc(C2c3c(oc4ccccc4c3=O)C(=O)N2c2ccccn2)cc(OC)c1OC (stereo not drawn),inactive: 133%
21,COc1ccc(N(Cc2cccs2)C(=O)c2ccc(OCC(C)C)cc2)cc1,inactive: 113%
22,CCCc1nn2c(=O)cc(COC(=O)c3ccccc3NC(=O)c3cccs3)nc2s1,inactive: 65%

row,Compound,survival
1,COc1cccc(C2CC(=O)N(c3ccc(F)cc3)C3=C2C(=O)OC3)c1OC (stereo not drawn),inactive: 75%
2,Cc1ccc(C)c(C(=O)c2c(N)c(-c3nc(-c4ccc5c(c4)OCO5)cs3)c3ccccn23)c1,inactive: 76%
3,Cc1cccc(NC(=O)C2CCC(CNS(=O)(=O)c3ccc(Br)s3)CC2)c1 (stereo not drawn),inactive: 64%
4,COCCNC(=O)c1c[nH]c2ccc(S(=O)(=O)Nc3ccc(F)cc3F)cc2c1=O,inactive: 82%
5,Cn1ccc2c(OCC(=O)NCc3ccccc3)cccc2c1=O,inactive: 73%
6,COc1ccccc1CNS(=O)(=O)c1ccc(-c2cnc(C3CC3)o2)cc1,inactive: 83%
7,Cc1ccc(N2CC(NC(=O)c3cc4ccccc4o3)CC2=O)cc1C (stereo not drawn),inactive: 75%
8,O=C(c1cc2ccccc2oc1=O)N(Cc1cccs1)Cc1cccs1,inactive: 109%
9,CC(C)c1nn2c(=O)cc(COC(=O)c3cccc(NC(=O)c4cccs4)c3)nc2s1,inactive: 84%
10,CCCOc1ccc(-c2nonc2NC(=O)c2cc(OC)c(OC)c(OC)c2)cc1OCCC,inactive: 120%
11,CCc1ccc(C2=NN(CCC(=O)NCCc3ccc(OC)c(OC)c3)C(=O)CC2)cc1,inactive: 78%
12,Cc1ccccc1C(=O)Nc1ccc2nc(SCC(=O)N3CCc4ccccc43)sc2c1,inactive: 106%
13,COc1ccc(CNC(=O)c2ccc3c(c2)N(Cc2ccc(C)cc2)CCS3)cc1,inactive: 93%
14,CCc1ccccc1NC(=O)Cn1c(=O)n(-c2ccc(CC(=O)NCC3CCCO3)cc2)c(=O)c2ccccc21 (stereo not drawn),inactive: 97%
15,COc1ccc(CSc2nc3ccncc3n2CC(=O)Nc2ccc(C)c(F)c2)cc1,inactive: 76%
16,CC(C)=NOC1=NS(=O)(=O)c2ccccc21,inactive: 101%
17,CCOC(=O)c1cnc2nc(NCc3cccc(Br)c3)[nH]n2c1=O,inactive: 98%
18,Cc1cc(C)cc(NC(=O)C2CCCN2S(=O)(=O)c2ccc3c(c2)CCCC(=O)N3)c1 (stereo not drawn),inactive: 84%
19,COc1ccc(CCNC(=O)CCS(=O)(=O)c2cc(Br)cc3c2N(C(C)=O)CC3)cc1OC,inactive: 63%
20,Cc1cc(C)cc(-n2ccn(Cc3ccccc3C)c(=O)c2=O)c1,inactive: 86%
21,COc1ccccc1CNC(=O)CC(c1ccc(C)cc1)N1Cc2ccccc2C1=O (stereo not drawn),inactive: 60%
22,Cc1ccc(CNC(=O)C2COc3ccccc3C2)cc1 (stereo not drawn),inactive: 121%
